According to PubChem BioAssay AID1645887 (National Center for Advancing Translational Sciences (NCATS), 2021):
Values joined by “and” are separate entries in the source; they are usually repeats but may differ in a detail not shown here. Equal entries are not always repeated. In all, about 16,000 compounds went through this assay and about 40 (0.2%) were called active. Inconclusive means that the source gave no clear call. Such entries were picked first, then a sample of the others. Calls come from the whole dose curve; as a rule, active = well fitted activation curve with a large enough effect; inconclusive = small, poorly fitted or top-dose-only effect, or another doubt; inactive = no such curve, though single readings can be large or run the other way. Potencies beside an inconclusive call are fits to weak or partial responses and may not hold up. A structure can be active in one record and inactive in another.
% is set by controls: 0 for no effect and ±100 for the full control effect; potency is the fitted concentration of half-maximal effect; tags give direction and shape of the fitted curve.
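Throughout, for activation: exchange makes BODIPY-GDP fluorescence drop when released from Rap1B; series mostly up to about 150 µM.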

What follows are compounds tested against Rap guanine nucleotide exchange factor 4 (Homo sapiens) (UniProt Q8WZA2) (assay: Validation qHTS for agonist of cAMP-regulated guanine nucleotide exchange factor 4 (EPAC2)). Conditions: EPAC2 Rap1B BODIPY-GDP exchange, fluorescence; activation: active compounds read high.
Sequence of UniProt Q8WZA2 (Q8WZA2 whole entry, looked up): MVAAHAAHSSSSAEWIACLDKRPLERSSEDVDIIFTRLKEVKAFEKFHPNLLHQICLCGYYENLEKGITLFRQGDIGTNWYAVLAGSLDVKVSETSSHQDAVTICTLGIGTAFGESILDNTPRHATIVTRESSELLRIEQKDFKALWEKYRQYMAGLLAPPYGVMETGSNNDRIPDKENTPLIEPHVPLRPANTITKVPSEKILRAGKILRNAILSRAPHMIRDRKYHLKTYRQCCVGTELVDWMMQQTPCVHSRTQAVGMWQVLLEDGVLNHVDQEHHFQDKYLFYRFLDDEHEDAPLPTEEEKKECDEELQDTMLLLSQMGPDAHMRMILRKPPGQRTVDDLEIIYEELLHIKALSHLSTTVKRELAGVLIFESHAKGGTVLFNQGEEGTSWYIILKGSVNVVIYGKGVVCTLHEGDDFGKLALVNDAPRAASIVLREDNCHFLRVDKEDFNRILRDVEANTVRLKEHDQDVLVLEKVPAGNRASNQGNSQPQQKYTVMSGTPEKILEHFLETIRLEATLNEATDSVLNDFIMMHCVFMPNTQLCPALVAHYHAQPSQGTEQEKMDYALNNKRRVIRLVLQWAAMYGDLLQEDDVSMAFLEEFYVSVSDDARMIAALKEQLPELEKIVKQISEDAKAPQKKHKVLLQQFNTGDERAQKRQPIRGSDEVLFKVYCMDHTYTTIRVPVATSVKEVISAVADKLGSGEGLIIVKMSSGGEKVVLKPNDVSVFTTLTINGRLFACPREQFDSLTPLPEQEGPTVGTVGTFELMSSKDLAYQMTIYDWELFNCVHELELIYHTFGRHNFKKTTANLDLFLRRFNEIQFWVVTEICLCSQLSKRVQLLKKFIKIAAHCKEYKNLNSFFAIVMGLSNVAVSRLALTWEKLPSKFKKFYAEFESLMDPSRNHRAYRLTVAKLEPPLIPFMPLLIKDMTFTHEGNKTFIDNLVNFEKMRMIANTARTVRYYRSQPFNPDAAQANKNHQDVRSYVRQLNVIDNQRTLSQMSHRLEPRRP
Text: Principle Investigator: Xiaodong Cheng Ph.D.
The University of Texas Medical Branch, […], TX
In multi-cellular eukaryotic organisms, the effects of cAMP are transduced by two ubiquitously-expressed intracellular cAMP receptors, the classic protein kinase A/cAMP-dependent protein kinase (PKA/cAPK) and the more recently discovered exchange protein directly activated by cAMP/cAMP-regulated guanine nucleotide exchange factor (EPAC/cAMP-GEF). Both PKA and EPAC are ubiquitously expressed in all tissues, and an increase in intracellular cAMP levels will lead to the activation of both PKA and EPAC. Therefore, careful dissections of the individual role and relative contribution of EPAC and PKA within the overall cAMP signaling in various model systems are critical for further elucidating the mechanism of cAMP signaling. To date no EPAC-specific antagonists and agonist, as well as isoform-specific agonists have been reported, and developing EPAC-specific pharmacological probes to determine the physiological functions that EPAC play in the overall cAMP-mediated signaling remains a major challenge within the research field. Furthermore, identified regulators of EPAC may lead to new mechanism-based therapeutic strategies specifically targeting the EPAC / cAMP-signaling components as EPAC has been implicated to play important roles in major human pathological conditions such as diabetes, heart disease, and cancer.
This qHTS will be used to screen the Molecular Libraries Small Molecule Repository (MLSMR) as a concentration-titration series using the NCGC unique quantitative screening (qHTS) platform to find activators for EPAC1. In addition, this assay will also be used as a counterscreen for the EPAC2 qHTS. This fluorescent based assay is developed and validated for EPAC1 that measures exchange using EPAC effector Rap1 complex with BODIPY-GDP, a GDP analog with a tethered fluorophores. Activators are identified by monitoring the change in fluorescence signal as the exchanged free BODIPY-GDP has a reduced fluorescence compared to Rap1-bound BODIPY-GDP. Increase in signal (activation) is the desired outcome for the EPAC1 agonist while no activity in this assay is desired for the EPAC2 agonist counterscreen.
[1] de Rooij, J., Zwartkruis, F. J., Verheijen, M. H., Cool, R. H., Nijman, S. M., Wittinghofer, A., and Bos, J.L. (1998) Nature 396, 474-477.
Briefly, three uL of reagents (100 nM EPAC2, 250 nM RAP1B-BODIPY-GDP, 50 uM GDP) were dispensed into a 1536-well Greiner black solid-bottom medium binding assay plate. Controls and test compounds (23 nL) were transferred to the plate via a Kalypsys pin tool equipped with a 1536-pin array. The plates were centrifuged at 1,000 rpm for 15 seconds followed by 5 minute incubation at room temperature. The assay plates were read at 5 minute intervals for 30 minutes in the ViewLux plate reader using 480nm excitation and 540nm emission filters. The results were normalized to the agonist positive control of 6.5 mM cAMP.
In the case of `COc1cc2cc3c4c(cc(OC)c(OC)c4c2cc1OC)CCN3C`, the Potency is reported as inconclusive: 112 µM [activator, partial curve, poor fit]. In the case of `O=C1OC2(c3ccc(O)cc3Oc3cc(O)ccc32)c2ccccc21`, the Potency is reported as inconclusive: 0.316 µM [activator, partial curve, poor fit] and the activation is reported as inconclusive: 8.52% [activator]. `COc1ccc(Oc2ncc3nc(CCc4ccccc4)c(=O)n(CCC#N)c3n2)cc1` was tested, and the activation was inconclusive: 40% [activator]. With `COc1cc(CN2CCOc3ccc(C(O)c4cccnc4)cc3C2)cc(OC)c1` (stereo not given) the activation was inactive: -13.6%. In the case of `CCOC(=O)c1ccc(OCCN2C[C@H](O)[C@@H](O)[C@H](O)[C@H]2CO)cc1`, the Potency is reported as inconclusive: 112 µM [activator, single point]. With `C=C1CCC(OC(C)=O)/C(C)=C/CC2[C@H]1CC2(C)C` (stereo not given in full) the activation was inactive: -15.7%. `Nc1cc(-c2ccncc2)c[nH]c1=O` was tested, and the Potency was inconclusive: 112 µM [activator, single point]. For `CC(=O)OCC(=O)[C@@]1(O)CCC2C3CCC4=CC(=O)CC[C@]4(C)C3[C@@H](O)C[C@@]21C` (stereo not given in full), the Potency was inconclusive: 112 µM [activator, single point]. With `O=C(O)c1c(Cl)c(Cl)c(Cl)c(Cl)c1-c1c2cc(I)c(=O)c(I)c-2oc2c(I)c(O)c(I)cc12` the Potency was inconclusive: 126 µM [activator, single point]. With `CCOC(=O)CCC(=O)O[C@H]1C(O[C@@H]2C(C)[C@H](O[C@H]3C[C@@](C)(OC)C(O)C(C)O3)C(C)C(=O)OC(CC)[C@@](C)(O)C(O)[C@H](C)C(=O)C(C)C[C@]2(C)O)OC(C)CC1N(C)C` (stereo not given in full) the activation was inactive: -16.2%. In the case of `COc1ccc(-c2nc3cnc(N4CCNCC4)nc3n(Cc3cccc(OC)c3)c2=O)cc1`, the Potency is reported as inconclusive: 3.55 µM [activator, full curve, poor fit]. With `CC(=O)Nc1ccc(S[C@@H](CCN2CC[C@H](C(C)(C)C)CCC2=O)c2ccccc2)cc1` the activation was inactive: -31.2%. In the case of `CN(C)c1ccc(/C=C/c2ccnc3c(Cl)cccc23)cc1`, the Potency is reported as inconclusive: 0.794 µM [activator, full curve, poor fit]. For `CC1(C)C(=O)NC2=C1C(=O)C(=O)c1ccccc12`, the Potency was inconclusive: 11.2 µM [activator, partial curve, poor fit]. For `COc1ccc(/C=C/C(=O)CC(=O)/C=C/c2cccc(O)c2OC)cc1O`, the Potency was inconclusive: 141 µM [activator, single point]. In the case of `COC(=O)C1C2CC3c4[nH]c5cc(OC)ccc5c4CCN3CC2CC(OC(=O)c2cc(OC)c(OC)c(OC)c2)C1OC` (stereo not given), the Potency is reported as inconclusive: 31.6 µM [activator, full curve, poor fit]. `Cc1ncc([N+](=O)[O-])n1CC(O)CCl` (stereo not given) was tested, and the Potency was inconclusive: 22.4 µM [activator, partial curve, poor fit]. With `CCCCN(CCCC)c1ccc(/C=C/c2ccnc3ccccc23)cc1` the Potency was inconclusive: 3.98 µM [activator, full curve, poor fit]. For `CN1CCN(c2ncc3nc(-c4cccs4)c(=O)n(Cc4ccc(F)cc4)c3n2)CC1`, the Potency was inconclusive: 56.2 µM [activator, partial curve, poor fit]. For `Cc1cc(N)c2cc(NC(=O)Nc3ccc4nc(C)cc(N)c4c3)ccc2n1`, the Potency was inconclusive: 7.94 µM [activator, full curve, poor fit]. In the case of `CC[C@@]1(O)C(=O)OCc2c1cc1n(c2=O)Cc2cc3c([N+](=O)[O-])cccc3nc2-1`, the activation is reported as inactive: 5.92%. With `CC1=C(C(=O)OC(C)C)C(c2cccc([N+](=O)[O-])c2)C(C(=O)OC2CN(C(c3ccccc3)c3ccccc3)C2)=C(N)N1` (stereo not given) the Potency was inconclusive: 126 µM [activator, single point]. With `CN1Cc2c(N)cccc2C(c2ccccc2)C1` (stereo not given) the Potency was inconclusive: 28.2 µM [activator, single point]. `Nc1ncnc2c1nc(Sc1ccc(Cl)cc1)n2[C@H]1OC2COP(=O)(O)O[C@@H]2C1O` (stereo not given in full) was tested, and the Potency was inconclusive: 1.41 µM [activator, full curve, poor fit]. `O=S(=O)(O)CC(S)CS` (stereo not given) was tested, and the Potency was inconclusive: 44.7 µM [activator, full curve]. With `CN(CCO)C(=O)c1cn(C2CCCN(Cc3ccc(C(F)(F)F)cc3)C2)nn1` (stereo not given) the activation was inactive: -15.8%. In the case of `Cc1cnc(SCc2ccccn2)nc1C1CCCN(Cc2ccsc2)C1` (stereo not given), the activation is reported as inconclusive: -29.1% [activator]. `OC(CN1CCN(c2cccc(Cl)c2)CC1)C(c1ccccc1)c1ccccc1` (stereo not given) was tested, and the Potency was inconclusive: 7.08 µM [activator, full curve, poor fit]. With `CCNc1ncc2nc(-c3ccccc3)c(=O)n(CCc3ccccc3)c2n1` the activation was inactive: 4.35%. `O=C(OCC(COC(=O)c1cccnc1)(COC(=O)c1cccnc1)COC(=O)c1cccnc1)c1cccnc1` was tested, and the Potency was inconclusive: 12.6 µM [activator, full curve, poor fit]. `[Cl][In]([Cl])[Cl]` was tested, and the activation was inconclusive: -28.9% [activator]. In the case of `COCCc1ccc(OCC(O)CNC(C)C)cc1` (stereo not given), the Potency is reported as inconclusive: 112 µM [activator, single point]. In the case of `Cc1cnc(C(=O)O)c[n+]1[O-]`, the Potency is reported as inconclusive: 50.1 µM [activator, single point]. In the case of `COC(=O)C1N[C@@H]([C@@H](NC(=O)COc2ccccc2)C(=O)NCc2ccccc2)SC1(C)C` (stereo not given in full), the activation is reported as inconclusive: -29.6% [activator]. In the case of `CN(C)c1ccc(/C=C/c2c3ccccc3nc3ccccc23)cc1`, the activation is reported as inactive: -14.9%. For `COC(=O)C1=C(C)NC(C)=C(C(=O)OCCN(C)Cc2ccccc2)C1c1cccc([N+](=O)[O-])c1` (stereo not given), the Potency was inconclusive: 4.47 µM [activator, full curve, poor fit]. For `O=c1c(-c2ccccc2)nc2cnc(Oc3ccccc3)nc2n1Cc1cccs1`, the activation was inactive: -18.6%. `FC1(F)C(F)(F)C(F)(F)C2(F)C(F)(F)C(F)(F)C(F)(F)C(F)(F)C2(F)C1(F)F` (stereo not given) was tested, and the Potency was inconclusive: 100 µM [activator, partial curve]. For `Nc1ccc2c3c(cccc13)C(=O)NC2=O`, the Potency was inconclusive: 100 µM [activator, partial curve, poor fit]. For `O=c1[nH]cnc2[nH]ncc12`, the Potency was inconclusive: 112 µM [activator, single point]. `CN1CCC(OC(c2ccccc2)c2ccccc2)CC1` was tested, and the activation was inconclusive: -24.7% [activator]. With `COc1cc(/C=C/C(=O)CC(=O)/C=C/c2ccc(O)c(OC)c2)ccc1O` the Potency was inconclusive: 112 µM [activator, single point]. For `CC1(C)S[C@@H]2[C@H](NC(=O)[C@H](N)c3ccccc3)C(=O)N2[C@H]1C(=O)OCOC(=O)[C@@H]1N2C(=O)C[C@H]2S(=O)(=O)C1(C)C`, the Potency was inconclusive: 50.1 µM [activator, partial curve, poor fit]. For `CC1(C)CCC2=C(O1)c1ccccc1C(=O)C2=O`, the Potency was active: 70.8 µM. For `CCOC(=O)Nc1ccc(NCc2ccc(F)cc2)nc1N`, the Potency was inconclusive: 112 µM [activator, single point] and inconclusive: 126 µM [activator, single point]. For `COc1cccc(Nc2ncc3nc(-c4cn(C)c5ccccc45)c(=O)n(CCC#N)c3n2)c1`, the Potency was inconclusive: 126 µM [activator, partial curve, poor fit]. With `COc1cccc(-c2cncnc2NCCc2c[nH]c3ccc(OC)cc23)c1` the activation was inconclusive: -27.3% [activator]. For `COc1cccc(Cn2c(=O)c(-c3cc(F)cc(F)c3)nc3cnc(N4CCNCC4)nc32)c1`, the Potency was inconclusive: 79.4 µM [activator, partial curve, poor fit]. `Cc1cc(N(C)C)cc(C)c1/C=C/c1ccnc2ccccc12` was tested, and the Potency was inconclusive: 39.8 µM [activator, single point]. `CN(C)CCc1c[nH]c2ccc(CS(=O)(=O)N3CCCC3)cc12` was tested, and the activation was inactive: -8.07%. In the case of `Nc1nc2c(nc(Br)n2[C@@H]2O[C@H]3COP(=O)(O)O[C@H]3[C@@H]2O)c(=O)[nH]1`, the Potency is reported as inconclusive: 50.1 µM [activator, partial curve]. With `CN1CCN(c2ncc3nc(-c4cccs4)c(=O)n(CCC#N)c3n2)CC1` the Potency was inconclusive: 56.2 µM [activator, partial curve]. With `CC[N+](C)(CC)CCC[n+]1c(-c2ccccc2)c2cc(N)ccc2c2ccc(N)cc21` the Potency was inconclusive: 50.1 µM [activator, partial curve]. For `OCCN1CCN(CC/C=C2/c3ccccc3Sc3ccc(Cl)cc32)CC1`, the activation was inconclusive: -41.8% [activator]. For `Cc1c(S(=O)(=O)O)oc2c1C(=O)C(=O)c1c-2ccc2c1CCCC2(C)C`, the Potency was inconclusive: 63.1 µM [activator, partial curve]. With `CN(C)CCOC(=O)C(c1ccccc1)C1(O)CCCC1` (stereo not given) the Potency was inconclusive: 50.1 µM [activator, single point]. In the case of `CN(C)S(=O)(=O)c1ccc2c(c1)/C(=C/c1cc3c([nH]1)CCCC3)C(=O)N2`, the Potency is reported as inconclusive: 126 µM [activator, single point]. With `C[n+]1c2cc(N)ccc2cc2ccc(N)cc21` (tested in a mixture with another compound) the Potency was active: 22.4 µM. With `CC1(C)OC[C@@H](COC(=O)CCc2ccc(OC[C@@H](O)CNCCNC(=O)N3CCOCC3)cc2)O1` the Potency was inconclusive: 126 µM [activator, single point].
